Among all 45,000 compounds or so, about 65 (0.1%) were called active. Calls follow the shape of the dose curve; as a rule, active = well fitted activation curve with a large enough effect; inconclusive = small, poorly fitted or top-dose-only effect; inactive = no such curve, though single readings can be large or run the other way. Some of the results follow.
molecular target: Galactocerebrosidase (Homo sapiens) (UniProt P54803); test: A Novel Cell-Based Assay to Identify Small Molecules for B -Galactocerebrosidase; details: 145M-Twi-hGALC-G270D cells (Twitcher mouse brain line with human GALC G270D), HMU-beta-Gal fluorescence, 48 h; series mostly up to 57.5 µM; activation: at the top concentration; also: 0% is about no effect; nearly all actives have a fitted effect of over 65% in size
Summary of the method: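 Fluorescence readout: HMU-β-gal cleavage by mutant GALC (0.1 mM final, citrate/phosphate pH 5.2 with 1 mg/mL taurocholate), stopped with carbonate/bicarbonate plus Triton X-100. Cells: murine Twitcher 145M-Twi expressing human G270D GALC; qHTS for activators.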

UniProt P54803, sequence (P54803 whole entry, looked up): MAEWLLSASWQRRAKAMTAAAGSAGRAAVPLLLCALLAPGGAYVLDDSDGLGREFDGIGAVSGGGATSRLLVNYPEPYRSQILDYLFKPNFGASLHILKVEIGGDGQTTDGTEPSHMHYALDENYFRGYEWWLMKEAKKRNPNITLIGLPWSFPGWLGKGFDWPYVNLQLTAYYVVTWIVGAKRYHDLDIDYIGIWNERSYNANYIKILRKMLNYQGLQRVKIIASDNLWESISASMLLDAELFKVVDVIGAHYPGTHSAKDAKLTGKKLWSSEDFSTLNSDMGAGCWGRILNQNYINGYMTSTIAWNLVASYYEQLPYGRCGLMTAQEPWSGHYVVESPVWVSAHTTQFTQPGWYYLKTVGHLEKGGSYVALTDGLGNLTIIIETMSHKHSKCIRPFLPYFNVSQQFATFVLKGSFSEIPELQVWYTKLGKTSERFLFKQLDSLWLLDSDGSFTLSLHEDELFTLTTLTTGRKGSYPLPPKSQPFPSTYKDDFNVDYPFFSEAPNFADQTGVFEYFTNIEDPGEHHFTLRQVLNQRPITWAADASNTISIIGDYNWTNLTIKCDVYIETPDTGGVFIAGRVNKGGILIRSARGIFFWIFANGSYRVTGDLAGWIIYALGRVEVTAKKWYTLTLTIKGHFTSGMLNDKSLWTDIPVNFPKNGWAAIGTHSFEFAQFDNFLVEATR

Structure (SMILES) | activation
CCS(=O)(=O)NCC(c1ccco1)N1CCN(c2ccc(OC)cc2)CC1 (stereo unspecified) | inactive: 0.446%
CCN(CC)c1ccc(-n2nc3cc(C)c(NC(=O)c4ccccc4F)cc3n2)cc1 | inactive: -0.935%
Cc1ccccc1CN1c2ccccc2-c2nc(SCC(=O)NCCc3ccccc3)ncc2S1(=O)=O | inactive: -5.16%
Cc1ccc(C(CC(=O)Nc2cc(C)cc(C)c2)N2Cc3ccccc3C2=O)cc1 (stereo unspecified) | inactive: -29.9%
Cc1cccc(NC(=O)CSc2nnc(C)c(=O)[nH]2)c1 | inactive: 2.52%
Cc1ccc(-n2ncc3c(NCCCc4ccccc4)ncnc32)cc1C | inactive: -7.1%
CC(C)c1ccc(NC(=O)c2ccc(NC(=O)CCS(=O)(=O)c3cccs3)cc2)cc1 | inactive: -10.6%
Cc1ccc(CCNc2nc3c(S(=O)(=O)c4ccc(C)cc4)nnn3c3ccsc23)cc1 | inactive: -2.71%
CCS(=O)(=O)N1CC(=O)N(c2cccc(C)c2C)C(C)(C(=O)NC2CCCCC2)C1 (stereo unspecified) | inactive: -10.8%
CCOC(=O)c1[nH]c(C)c(CCC(=O)Nc2ccc(N(CC)CC)cc2C)c1C | inactive: -9.05%
Cc1ccc(-c2c3c(=O)n(C)c(=O)n(C)c3c3c(C(F)(F)F)nc4ccccc4n23)cc1 | inactive: -21.6%
Cc1c(NC(=O)c2sc3c([N+](=O)[O-])cccc3c2Cl)cccc1-c1nc2ccccc2o1 | inactive: -20.4%
COc1cc(CNC(=O)c2cc3n(n2)CCCN(Cc2ccc(C)cc2)C3=O)cc(OC)c1OC | inactive: -30%
[O-][n+]1cccc(CO)c1 | inactive: -10%
COc1cc(OC)cc(C(=O)Nc2c(C(=O)Nc3ccc(F)cc3)oc3ccccc23)c1 | inactive: -8.07%
COc1cc(NC(=O)Cn2c(C)cc3ccccc3c2=O)cc(OC)c1OC | inactive: -5.92%
CCOC(=O)c1cc(-c2ccccc2)n(CCCC(=O)Nc2cccc(Cl)c2C)c1C | inactive: -1.66%
CSc1ccc(CCNC(=O)C(C)n2c(C)c3cnn(-c4ccccc4)c(=O)c3c2C)cc1 (stereo unspecified) | inactive: -15.5%
Cc1nc(-c2ccc(F)cc2)sc1CCNC(=O)c1ccco1 | inactive: 0.4%
Cc1cc(C)cc(NC(=O)Cn2nnc(C(=O)Nc3cc(C)cc(C)c3)c2N)c1 | inactive: -13.1%
CCc1ccc(CNC(=O)CCN2C(=O)COc3ccccc32)cc1 | inactive: -22.1%
Cc1ccc(/C=C/c2onc(C)c2S(=O)(=O)N2CCC(C(=O)N3CCOc4ccccc43)CC2)cc1 | inactive: -15.9%
O=C(Cn1c(=O)n(Cc2ccccc2)c(=O)c2oc3ccccc3c21)Nc1ccc(Cl)cc1 | inactive: -7.77%
CC(=O)Nc1cc(C(=O)NCc2ccc(F)cc2Cl)ccc1Sc1ccc(Cl)cc1 | inactive: -2.91%

Structure (SMILES) | activation
COC(=O)c1cc2oc(C)cc2n1CC(=O)Nc1ccc(C)cc1C | inactive: -5.34%
COc1ccccc1N(Cc1cc2cccc(C)c2[nH]c1=O)C(=O)c1cccc(Cl)c1 | inactive: -11.7%
Oc1ccc(Cl)cc1Nc1nc2ccccc2n2cnnc12 | inactive: -11.2%
CCOC(=O)c1ccc(NC(=O)Cc2ccc(-n3c(CC)nc4cccnc43)cc2)cc1 | inactive: -7.92%
COc1ccc(CNC(=O)CCCc2cn(C)c3ccccc23)c(OC)c1 | inactive: -3.36%
NC(=O)c1cc(S(=O)(=O)N2CCCCC2)cs1 | inactive: -4.96%
COc1ccc(NC(=O)Cn2nnc(C(=O)NCc3ccccc3Cl)c2N)cc1Cl | inactive: 4.75%
CCNC(=O)CC1C(=O)N(c2ccc(C)cc2)C(=O)N1Cc1ccc(C)cc1 (stereo unspecified) | inactive: -9.09%
O=C(CCS(=O)(=O)c1ccc2c(c1)NC(=O)CO2)Nc1cccc(C(F)(F)F)c1 | inactive: -4.39%
COc1ccc(CCn2c3c(c(=O)[nH]c2=O)C(NC(=O)c2ccccc2)(C(F)(F)F)C(=O)N3)cc1OC (stereo unspecified) | inactive: -9.4%
CCOc1ccc(N(C(=O)c2ccc(C)cc2)S(=O)(=O)c2ccc3c(c2)n(C)c(=O)n3C)cc1 | inactive: 14%
Cc1ccc2nc(-c3ccc(C)c(NC(=O)CSc4ccc(Cl)cc4)c3)oc2c1 | inactive: -6.33%
CCn1cc(S(=O)(=O)c2cc(C)cc(C)c2)c(=O)c2cc(F)c(N3CCC(C)CC3)cc21 | inactive: -24.2%
CCN(CC)C(=O)Cn1c(=O)n(CCCCCC(=O)NCc2ccccc2Cl)c(=O)c2sccc21 | inactive: 2.19%
COc1ccc(OC)c(NC(=O)c2ccc3c(c2)c(C)c(C)n3Cc2ccc(F)cc2)c1 | inactive: -12.7%
O=C(NCc1cccc(Br)c1)c1cccn1-c1nnc(N2CCCCC2)s1 | inactive: 1.23%
Cc1ccc2cccc(NC(=O)c3ccc(-c4cc(Cl)ccc4Cl)o3)c2n1 | inactive: -9.96%
Cc1ccc(Cl)cc1N1CCN(C(=O)Cn2cnc3nc4c(cc3c2=O)CCCC4)CC1 | inactive: -27.9%
O=C(NCc1ccc(Cl)cc1)c1cc2ccccc2o1 | inactive: -5.21%
Cc1ccc(C)n1-c1nnc(N2CCCC(C(=O)NCc3ccc(F)cc3)C2)s1 (stereo unspecified) | inactive: -4.89%
Cc1cccc(-c2nc(SCC(=O)Nc3ccc4c(c3)OCO4)c(-c3ccccc3)[nH]2)c1 | inactive: -14.3%
CCc1ccc(OCC(=O)N(Cc2ccc(OC)cc2)C2CCS(=O)(=O)C2)cc1 (stereo unspecified) | inactive: -7.98%
O=C(CCn1c(=O)c2cccn2c2cccnc21)N1CCN(c2cccc(Cl)c2)CC1 | inactive: 4.13%
CN1C(=O)Cc2cc(S(=O)(=O)NCCc3ccccc3)ccc21 | inactive: -14.6%

Structure (SMILES) | activation
COc1ccc(NC(=O)C2CCCN2S(=O)(=O)c2ccc3nc(-c4ccccc4)[nH]c3c2)cc1 (stereo unspecified) | inactive: -10.2%
CCCCCN1C(C(=O)c2ccccc2)=C(NC(=O)c2ccccc2Cl)c2ccccc2S1(=O)=O | inactive: -19%
COc1ccc(CCNC(=O)c2ccc3c(c2)N(Cc2ccc(Cl)cc2)CCS3)c(OC)c1 | inactive: 2.89%
CCN1CCN(C(=O)c2ccc3c(c2)N(Cc2cccc(F)c2)C(=O)c2ccccc2S3)CC1 | inactive: -22%
COCCCNC(=O)Cn1cnc2sc(C)c(S(=O)(=O)N3CCN(c4ccccc4OC)CC3)c2c1=O | inactive: -27.4%
CCOC(=O)c1cc(-c2ccc(C)cc2)n(CCC(=O)Nc2ccc(OC)c(OC)c2)c1C | inactive: -11.7%
COc1ccc(-c2nc3n(n2)C(=O)CC(c2ccc(Cl)cc2)S3)cc1 (stereo unspecified) | inactive: -9.72%
Cc1ccc(-c2ccc(=O)n(CC(=O)NCc3ccc(F)cc3)n2)cc1 | inactive: -16.8%
CCC(C)NC(=O)C1CCC(CNS(=O)(=O)c2ccc(Cl)cc2)CC1 (stereo unspecified) | inactive: -11.5%
CCOC(=O)C1CCN(S(=O)(=O)c2ccc3c(c2)NC(=O)C(C)C(=O)N3)CC1 (stereo unspecified) | inactive: -17.6%
Cc1ccc2nc3c(cc(C(=O)NC4CCCCC4)c(=N)n3C(C)C)c(=O)n2c1 | inactive: -19.7%
CCOC(=O)c1ccc(NC(=O)CC2NCCNC2=O)cc1 (stereo unspecified) | inactive: -10.1%
CCn1c2ccccc2c2cc(NC(=O)COc3ccc(C)c(C)c3)ccc21 | inactive: -2.76%
COC(=O)c1c(NC(=O)COc2cc(C)ccc2C(C)C)sc2c1CCC(C)C2 (stereo unspecified) | inactive: -6%
Cc1cc(C)c(S(=O)(=O)n2cnc(C)c2)c(C)c1 | inactive: -6.91%
CC(=O)c1ccc(N2CCN(S(=O)(=O)c3ccc(-c4cc(C)no4)s3)CC2)cc1 | inactive: -1.43%
COC(=O)c1ccc(NC(=O)C2CCN(C(=O)c3ccc(F)cc3)CC2)cc1 | inactive: -6.79%
CC1=C(C(=O)Nc2ccccc2C)C(c2cccnc2)n2nc(SCc3ccccc3F)nc2N1 (stereo unspecified) | inactive: -11.2%
CCOc1cc(C(=O)Nc2ccc(-c3nc4ncccc4o3)cc2C)cc(OCC)c1OCC | inactive: -7.96%
Cc1cccc(NC(=O)CCn2nc(-c3ccccc3)c3ccccc3c2=O)c1 | inactive: -33.4%
CCS(=O)(=O)CCSc1nc(-c2ccc(Br)cc2)cc(-c2ccccc2)c1C#N | inactive: -18%
N#Cc1cccc(NC(=O)C2CCN(c3ncccn3)CC2)c1 | inactive: -1.82%
COc1ccccc1CNC(=O)CCCCn1c(=O)c2ccccc2n(CC(=O)Nc2cc(Cl)ccc2C)c1=O | inactive: -14.6%
O=C(O)CCc1ccc(-c2ccccc2)n1CC(=O)Nc1ccccc1C(F)(F)F | inactive: -15.8%

Structure (SMILES) | activation
Cc1ccccc1Nc1nn2c(=O)c3ccc(C(=O)N4CCCC(C)C4)cc3nc2s1 (stereo unspecified) | inactive: -14.5%
COc1ccc2c(c1)c1c(c(=O)n(-c3ccccc3C)c(=O)n1CC(=O)Nc1c(C)cccc1C)n2C | inactive: -9.6%
O=c1c2[nH]c3ccccc3c2nc(SCc2cccc(F)c2)n1-c1ccccc1 | inactive: -15.5%
CCOc1ccc(CNS(=O)(=O)c2cc(-c3cc(C)no3)ccc2C)cc1OC | inactive: -8.1%
O=C1CC(c2ccc(Cl)cc2)Sc2nc(-c3ccc(F)cc3)nn21 (stereo unspecified) | inactive: -25%
COc1ccc(-c2cnc(C)o2)cc1S(=O)(=O)Nc1ccc(C)c(N(C)C)c1 | inactive: -19.1%
CC(C)(C)c1ccc(C(=O)CCCN2CCC(OC(c3ccccc3)c3ccccc3)CC2)cc1 | inactive: -17.7%
COc1ccc(NC(=O)Cn2c(SCc3ccc(C)cc3)nc3cccnc32)c(OC)c1 | inactive: 0.514%
Cc1ccc(NC(=O)CCC(=O)N2Cc3ccccc3Oc3ncccc32)cc1 | inactive: -6.82%
COc1cccc(OC)c1C(=O)Nc1ccc2c(c1)N(C(C)=O)CCC2 | inactive: -6.7%
O=C(CCc1ccccc1)NC1CC(=O)N(c2ccccc2)C1 (stereo unspecified) | inactive: -7.01%
CCCn1c(=O)c2sccc2n2c(CCCC(=O)Nc3cccc(CC)c3)nnc12 | inactive: -6.85%
CCc1cnc2c(c1SCC(=O)Nc1ccc(C)cc1C)c(=O)n(C)c(=O)n2C | inactive: -6.82%
COCCCNC(=O)CSc1nc(-c2ccccc2)[nH]c1-c1ccc(C)cc1 | inactive: -17.3%
Cn1c(=O)[nH]c2cc(-c3noc(-c4ccc(F)cc4)n3)ccc21 | inactive: -11.7%
CCn1c(=O)cc(SCC(=O)NCCc2ccc(OC)cc2OC)c2ccccc21 | inactive: -35.1%
CCc1ccc(-n2c(=O)c3c4c(sc3n(CC(=O)NC(C)CC)c2=O)CCCC4)cc1 (stereo unspecified) | inactive: -7.56%
CCc1nn2c(=O)cc(COC(=O)C(c3ccccc3)c3ccccc3)nc2s1 | inactive: -12.3%
Cc1cccc(-c2nc(SCC(=O)Nc3ccc4c(c3)OCCO4)c(-c3ccccc3)[nH]2)c1 | inactive: -15.6%
Cc1cc(C)cc(N(CC(=O)NCc2ccccc2Cl)S(=O)(=O)c2c(C)noc2C)c1 | inactive: -14.9%
COc1ccc(-n2nc(C(=O)NCCc3cccc(C)c3)c3c4ccccc4n(C)c3c2=O)cc1Cl | inactive: -16%
CCOC(=O)c1ccc(Nc2cc(-c3ccccc3)nc(C)n2)cc1 | inactive: -5.08%
Cc1ccccc1C(=O)Nc1nnc(S(=O)(=O)N2CCCCCC2)s1 | inactive: -15.1%
COC(=O)CC1Oc2ccccc2-n2cc(-c3ccc(Cl)cc3)nc21 (stereo unspecified) | inactive: -7.37%

Source: PubChem BioAssay AID1159614 (National Center for Advancing Translational Sciences (NCATS), 2016)
